Measurements as given in PubChem BioAssay AID1460 (National Center for Advancing Translational Sciences (NCATS), 2008).
In all, about 270,000 compounds went through this assay and about 5,800 (2.1%) were called active. The shares of active, inactive and inconclusive entries below differ from those in the screen. Calls follow the shape of the dose curve; as a rule, active = well fitted inhibition curve with a large enough effect; inconclusive = small, poorly fitted or top-dose-only effect; inactive = flat fitted curve, though single readings scatter. Potencies of inconclusive entries are doubtful fits and often do not repeat.
% is scaled to controls: 0 for no effect and ±100 for the full control effect; potency is read from the fitted curve at half-maximal effect; tags tell the direction and shape of the fitted curve.
Also: nearly all actives have a fitted effect of over 55% in size.

The compounds below were run against Microtubule-associated protein tau (Homo sapiens) (UniProt P10636) (assay: qHTS for Inhibitors of Tau Fibril Formation, Thioflavin T Binding). Settings: recombinant tau K18 P301L, heparin-induced fibrillization, ThT fluorescence; series mostly up to 57.4 µM; activity, negative = inhibition: at the top concentration.
UniProt P10636, sequence (P10636 whole entry, looked up): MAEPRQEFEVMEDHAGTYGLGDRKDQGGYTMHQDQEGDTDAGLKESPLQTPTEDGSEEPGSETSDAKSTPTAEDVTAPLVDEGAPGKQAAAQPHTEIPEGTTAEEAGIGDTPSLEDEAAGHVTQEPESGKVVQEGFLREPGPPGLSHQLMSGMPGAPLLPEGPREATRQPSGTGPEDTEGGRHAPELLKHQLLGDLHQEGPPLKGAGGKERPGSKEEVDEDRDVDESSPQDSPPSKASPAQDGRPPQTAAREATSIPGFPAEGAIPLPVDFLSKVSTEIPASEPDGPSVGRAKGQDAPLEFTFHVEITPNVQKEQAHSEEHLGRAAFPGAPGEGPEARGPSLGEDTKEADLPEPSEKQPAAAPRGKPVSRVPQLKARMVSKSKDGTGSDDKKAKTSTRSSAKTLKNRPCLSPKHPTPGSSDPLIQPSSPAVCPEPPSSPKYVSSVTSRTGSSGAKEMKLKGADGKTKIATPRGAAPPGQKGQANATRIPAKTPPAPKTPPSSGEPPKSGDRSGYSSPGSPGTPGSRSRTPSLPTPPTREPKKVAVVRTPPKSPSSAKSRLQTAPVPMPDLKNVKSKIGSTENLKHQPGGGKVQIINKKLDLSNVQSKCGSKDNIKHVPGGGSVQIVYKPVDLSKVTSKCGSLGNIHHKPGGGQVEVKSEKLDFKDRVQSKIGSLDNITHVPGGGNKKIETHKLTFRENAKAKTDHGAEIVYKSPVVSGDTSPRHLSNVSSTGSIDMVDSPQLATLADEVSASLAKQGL
In short: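 Using a mix of unlabeled (15 uM) and Alexa 594-labeled (0.24 uM) tau K18 P301L, heparin-triggered fibrillization over 6 hr at 37 C was scored by ThT fluorescence.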
For `Cc1cc(CN(C)C(=O)c2cc(COc3ccc4ncccc4c3)on2)on1`, the “activity, negative = inhibition” value was inactive: 7.48%.
For `COC(=O)NC(=C(Cl)Cl)S(=O)(=O)c1ccccc1`, the Potency was inconclusive: 25.1 µM [inhibitor, single point].
`OC(CNCCc1ccc(Cl)cc1)COc1ccc2ccccc2c1` (stereo not given) was tested, and the Potency was inconclusive: 17.8 µM [inhibitor, partial curve].
`CCO[C@H]1OC(C(=O)N2CCCCCCC2)=C[C@@H](c2ccccc2)[C@@H]1CCCO` was tested, and the “activity, negative = inhibition” value was inactive: 2.08%.
`CCOC(=O)N1CCc2c(sc3c2c(=O)n(-c2ccccc2C(F)(F)F)c(=O)n3Cc2ccccc2C)C1` was tested, and the “activity, negative = inhibition” value was inactive: -4.97%.
For `O=C(Nc1sc2c(c1C(=O)NCc1cccnc1)CCCC2)c1cc(=O)c2ccccc2o1`, the Potency was inconclusive: 5.01 µM [inhibitor, partial curve].
With `Cc1nn(-c2ccccc2)c(C)c1C(=O)Oc1ccccc1` the Potency was inconclusive: 31.6 µM [inhibitor, single point].
`Cc1ccc(CCNC(=O)c2cc3c(s2)-c2c(C)cccc2OC3)cc1` was tested, and the Potency was inconclusive: 0.355 µM [inhibitor, full curve].
For `CCCn1c(=O)c(C(=O)Nc2ncccc2C)c(O)c2ccccc21`, the Potency was inconclusive: 20 µM [inhibitor, single point].
With `CCOC(=O)c1sc2nc(C)nc(N3CCCCC3C)c2c1C` (stereo not given) the Potency was inconclusive: 12.6 µM [inhibitor, partial curve].
In the case of `C=CCNC(=S)N1CCN(CCN=Cc2c(C)[nH]n(-c3ccc([N+](=O)[O-])cc3)c2=O)CC1`, the Potency is reported as inconclusive: 15.8 µM [inhibitor, partial curve].
With `CCOc1cc2[nH]c(=S)n(CCCN(CC)CC)c(=O)c2cc1OCC` the “activity, negative = inhibition” value was inactive: 2.07%.
`NC(=S)N/N=C/c1ncc(C(F)(F)F)cc1Cl` was tested, and the “activity, negative = inhibition” value was inactive: -20%.
`CCOC(=O)c1c(-c2ccccc2)oc2ccc(N(C(C)=O)S(=O)(=O)c3ccc(CC)cc3)cc12` was tested, and the “activity, negative = inhibition” value was inactive: -12.3%.
In the case of `CCC(=O)N1CCc2cc(S(=O)(=O)NC(CC(C)C)C(=O)NCCc3ccccc3)ccc21` (stereo not given), the “activity, negative = inhibition” value is reported as inactive: 5.64%.
`COC(=O)N/N=C/c1cc(Cl)c(OCc2ccccc2F)c(OC)c1` was tested, and the Potency was inconclusive: 22.4 µM [inhibitor, partial curve, poor fit].
For `CC(C)c1nc(C(=O)N2CCc3c([nH]c4ccccc34)C2c2ccccn2)cs1` (stereo not given), the Potency was inconclusive: 20 µM [inhibitor, partial curve].
`O=S(=O)(Nc1ccc2c(c1)oc1ccccc12)N1CCCC1` was tested, and the “activity, negative = inhibition” value was inactive: -5.13%.
In the case of `CCc1ccc(C(C)NC(=O)c2cc(C)oc2C)cc1` (stereo not given), the Potency is reported as inconclusive: 22.4 µM [inhibitor, single point].
`Fc1cccc2sc(Nc3nc4cc5c(cc4s3)OCCO5)nc12` was tested, and the Potency was inconclusive: 11.2 µM [inhibitor, partial curve].
In the case of `O=C(NC1CCN(Cc2ccccc2)CC1)c1ccc(N2CC3CC(C2)c2cccc(=O)n2C3)c([N+](=O)[O-])c1` (stereo not given), the “activity, negative = inhibition” value is reported as inactive: -5.7%.
For `Cc1cc(C(=O)NP(=O)(N2CCOCC2)N2CCOCC2)c(C)n1-c1ccc(N(C)C)cc1`, the Potency was inconclusive: 28.2 µM [inhibitor, partial curve].
`O=C(COc1ccc(Cl)cc1)Nc1ccc2nc(SCC(=O)N3CCCC3)sc2c1` was tested, and the Potency was inconclusive: 1 µM [inhibitor, full curve].
With `COc1ccc(OC)c(NC(=O)CSc2ccc(-c3sc(C)nc3C)nn2)c1` the Potency was inconclusive: 11.2 µM [inhibitor, partial curve, poor fit].
In the case of `Cc1ccccc1Nc1nnc(SCC(=O)c2cc3ccccc3o2)s1`, the Potency is reported as inconclusive: 17.8 µM [inhibitor, single point].
For `C(=Nc1cccc2c(N=Cc3ccco3)cccc12)c1ccco1`, the Potency was inconclusive: 22.4 µM [inhibitor, partial curve].
For `O=c1[nH]c2cc3c(cc2cc1CN(Cc1cccnc1)C(=S)NCc1ccco1)OCO3`, the Potency was inconclusive: 15.8 µM [inhibitor, partial curve, poor fit].
In the case of `COc1ccc(CCNC(=O)c2ccc3c(c2)N(Cc2ccc(F)cc2)C(=O)CS3)cc1OC`, the “activity, negative = inhibition” value is reported as inactive: -0.966%.
`Cc1cc(O)c(C=O)c2c1C(=O)Oc1c(COC(=O)/C=C/C(=O)O)c(O)c(C(=O)O)c(C)c1O2` was tested, and the Potency was active: 8.91 µM.
With `O=C(c1cc2ccc3cccnc3c2[nH]1)N1CCN(c2ccccc2)CC1` the Potency was inconclusive: 10 µM [inhibitor, partial curve].
In the case of `CCOC(=O)Nc1ccc2c(c1)Nc1ccccc1S2`, the Potency is reported as active: 7.94 µM.
`Cc1nn(CCCC(=O)N2CCN(c3ccc(F)cc3)CC2)c(C)c1[N+](=O)[O-]` was tested, and the Potency was inconclusive: 7.08 µM [inhibitor, partial curve].
With `COC(=O)c1cccc(-n2c(CCC(=O)O)ccc2-c2cccs2)c1` the Potency was inconclusive: 39.8 µM [inhibitor, single point].
`COc1ccc(OCc2nnc(SCC(=O)c3ccccc3)o2)cc1` was tested, and the Potency was inconclusive: 10 µM [inhibitor, partial curve].
For `COc1cc(-c2nc3nc(C)cc(C)n3c2Nc2ccc(Cl)cc2)ccc1O`, the Potency was inconclusive: 8.91 µM [inhibitor, partial curve].
For `CC(Oc1ccccc1)C(=O)Nc1nnc2n1CCS2` (stereo not given), the “activity, negative = inhibition” value was inactive: -3.18%.
`Cc1ccc(O)c(CNc2ccccn2)c1` was tested, and the “activity, negative = inhibition” value was inactive: 4.79%.
`CCOC(=O)C(=CNc1ncccc1C)C(=O)OCC` was tested, and the Potency was inconclusive: 28.2 µM [inhibitor, single point].
For `CCN(CC)c1ccc(NC(=O)/C=C\c2ccccc2Cl)cc1`, the Potency was active: 3.98 µM.
For `CSc1nc(-c2ccco2)nn1S(=O)(=O)c1ccccc1`, the “activity, negative = inhibition” value was inactive: -15.9%.
In the case of `CC(C)c1ccc(NC(=O)C(c2ccccc2)N(C)C(=O)c2cnccn2)cc1` (stereo not given), the “activity, negative = inhibition” value is reported as inactive: -3.11%.
For `O=C(CCCN1C(=O)c2cccc3cccc(c23)C1=O)N1CCN(c2ccccn2)CC1`, the Potency was inconclusive: 0.794 µM [inhibitor, full curve].
`CCOc1ccc(C(=O)Nc2ccc(NC(=O)c3ccco3)c(Cl)c2)cc1Br` was tested, and the Potency was inconclusive: 1.26 µM [inhibitor, full curve].
With `O=C(NNC(=O)c1cccnc1SCc1cccc([N+](=O)[O-])c1)c1cccnc1` the “activity, negative = inhibition” value was inactive: -8.59%.
In the case of `C#Cc1cccc(Nc2ncnc3cc(OC)c(OC)cc23)c1`, the Potency is reported as inconclusive: 39.8 µM [activator, single point].
